# Screen size: about 310,000 compounds; about 2,200 (0.71%) showed an effect of 50% or more. Effects have a minus sign here. The list shows a part of the results.
# Target: human ether-à-go-go-related gene (hERG) potassium channel (human, UniProt Q12809)
# Assay: primary screen, population patch clamp on CHO cells stably expressing hERG
# Sequence of human ether-à-go-go-related gene (hERG) potassium channel (Q12809 whole entry, looked up): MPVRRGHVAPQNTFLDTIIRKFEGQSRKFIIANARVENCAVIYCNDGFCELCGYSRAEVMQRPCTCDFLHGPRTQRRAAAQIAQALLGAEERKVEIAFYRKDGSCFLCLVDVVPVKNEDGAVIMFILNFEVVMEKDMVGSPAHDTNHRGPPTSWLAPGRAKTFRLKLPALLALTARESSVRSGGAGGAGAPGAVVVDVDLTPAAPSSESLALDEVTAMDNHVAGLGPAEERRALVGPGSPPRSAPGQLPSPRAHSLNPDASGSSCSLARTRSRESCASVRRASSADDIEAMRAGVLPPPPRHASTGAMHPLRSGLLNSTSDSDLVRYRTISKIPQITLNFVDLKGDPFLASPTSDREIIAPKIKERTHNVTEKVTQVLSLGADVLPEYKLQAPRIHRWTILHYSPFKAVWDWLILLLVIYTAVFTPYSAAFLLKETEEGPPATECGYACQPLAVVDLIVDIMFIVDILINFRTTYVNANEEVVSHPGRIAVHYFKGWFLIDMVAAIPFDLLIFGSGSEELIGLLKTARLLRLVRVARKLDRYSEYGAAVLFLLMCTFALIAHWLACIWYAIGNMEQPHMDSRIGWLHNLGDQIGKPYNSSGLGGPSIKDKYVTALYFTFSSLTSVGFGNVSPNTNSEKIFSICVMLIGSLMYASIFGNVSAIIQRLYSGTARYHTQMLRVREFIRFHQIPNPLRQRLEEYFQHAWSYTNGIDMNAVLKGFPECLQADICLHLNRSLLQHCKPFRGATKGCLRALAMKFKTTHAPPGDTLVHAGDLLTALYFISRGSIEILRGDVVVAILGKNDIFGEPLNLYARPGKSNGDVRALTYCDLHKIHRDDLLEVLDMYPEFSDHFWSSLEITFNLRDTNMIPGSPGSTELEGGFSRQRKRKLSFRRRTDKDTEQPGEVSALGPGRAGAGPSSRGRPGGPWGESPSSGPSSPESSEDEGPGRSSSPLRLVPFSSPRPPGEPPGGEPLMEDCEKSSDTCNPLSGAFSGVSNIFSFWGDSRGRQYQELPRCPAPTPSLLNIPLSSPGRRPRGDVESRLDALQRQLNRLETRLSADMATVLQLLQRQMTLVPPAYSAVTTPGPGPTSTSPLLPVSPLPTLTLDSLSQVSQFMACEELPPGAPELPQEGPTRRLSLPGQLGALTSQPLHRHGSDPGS
row,Structure (SMILES),"hERG current change (%, negative = inhibition) at 1uM [%]"
1,COC(=O)c1nnn(-c2cccc(Cl)c2)c1C(=O)OC,9.98
2,O=C(Nc1nccs1)C(Br)C(Br)c1ccccc1 (stereo not shown),13.9
3,O=C(CC(C(=O)O)C1CCCO1)NCc1ccccc1 (stereo not shown),4.29
4,CC(=O)Cc1nsc(NC(=O)c2oc(-c3ccccc3Cl)cc2C)n1,11.9
5,CC(=O)N(CCC(c1ccco1)C(C)C)Cc1ccc(Cl)cc1 (stereo not shown),-3.97
6,Cc1cccc(CSc2nnc(N)n2-c2ccccc2)c1,-4.62
7,O=C1Nc2cc(Cl)c(Cl)cc2N(O)N1c1cccc(Cl)c1,16.2
8,CSc1ncccc1C(=O)Nc1ccc(S(=O)(=O)Nc2nccs2)cc1,6.85
9,COc1ccc(OC)c2sc(N(CCCN(C)C)C(=O)CCS(=O)(=O)c3ccccc3)nc12.Cl,-29.7
10,COc1ccc(NS(=O)(=O)c2cc(NC(=O)c3ccccc3F)ccc2N2CCCC2)cc1,16.3
11,CC(=O)C1=C(O)C(=O)N(Cc2ccco2)C1c1ccccc1F (stereo not shown),10
12,Cc1nc(SCC(=O)c2ccc(F)cc2)n[nH]1,12.4
13,Cc1ccc(S(=O)(=O)N(C)C)cc1NC(=S)NC(C)CCCC(C)C (stereo not shown),8.26
14,c1csc(-c2nn3c(Cn4cnc5ccccc54)nnc3s2)c1,12.6
15,CC#CC(=O)N1CCC(n2nccc2NC(=O)c2ccc3c(c2)OCO3)CC1,-10.2
16,CCCc1nc2c(nnn2Cc2ccccc2Cl)c(=O)[nH]1,36.2
17,Cc1cccc(C)c1NC(=O)NN=C1CCCCC1,13.8
18,Cc1cc(C)cc(C(=O)NCCCc2ccccc2)c1,12.3
19,COc1ccccc1CNC(=O)C1CCN(C(=O)NC2CCCCC2)CC1,10.7
20,O=C(CSCc1ccc(Br)cc1)NCCc1ccccc1,9.23
21,CC(C(=O)Nc1ccc(N2CCOCC2)cc1)N1C(=O)NC(C)(C)C1=O (stereo not shown),15.8
22,O=C(c1ccc(-c2cccc(C(F)(F)F)c2)o1)N1CCOCC1,-3.27
23,Cc1ccc(C)c(NC(=O)CCC(=O)N/N=C/c2ccc3c(c2)OCO3)c1,13.4

row,Structure (SMILES),"hERG current change (%, negative = inhibition) at 1uM [%]"
1,C/C(=N\Nc1ccc(Cl)c(C(=O)O)c1)c1ccc[nH]1,6.73
2,COc1ccc(CCC(=O)OCC(=O)N(C)c2c(N)n(Cc3ccccc3)c(=O)[nH]c2=O)cc1,14.7
3,O=C(NC1CCSc2ccccc21)c1cccc(OC(F)F)c1 (stereo not shown),13.9
4,COC(=O)C(Cc1ccccc1)OS(N)(=O)=O (stereo not shown),14.1
5,CC(=O)N1CCN(C(=O)COc2ccccc2C(=O)Nc2ccccc2)CC1,-0.641
6,CCOC(=O)c1cc2c(=O)n3ccccc3nc2n(Cc2ccco2)c1=NC(=O)c1ccccc1OC,-6.81
7,COc1ccc(C2/C=C\CN(C(=O)C3CC3)CC(=O)N2Cc2ccc(F)cc2)cc1 (stereo not shown),5.2
8,CC1CC(C)CN(C(=O)CNC(=O)c2sc3ccccc3c2Cl)C1 (stereo not shown),-2.61
9,Cc1cccc(NS(=O)(=O)c2cccc(C(=O)NCC(C)(C)N3CCOCC3)c2)c1,4.12
10,COc1ccc(S(=O)(=O)N2CCCC2C(=O)Nc2ccc(O)cc2)cc1 (stereo not shown),7.62
11,CCOc1ccc2ncc(S(=O)(=O)c3ccccc3)c(N3CCC4(CC3)OCCO4)c2c1,8.7
12,NNC(=O)c1ccc(Cn2cc(Br)cn2)o1,10.4
13,O=NC1=C(c2c(O)[nH]c3ccccc23)CCCC1,3.23
14,Cl.N#Cc1cccc(C(c2nnnn2C2CCCC2)N2CCCCCC2)c1 (stereo not shown),-4.35
15,O=C(CSc1ccc(-c2ccc(Cl)cc2)nn1)N1CCCc2ccccc21,9.22
16,COC(=O)c1ccc(N/C=C\C(=O)c2ccc3c(c2)OCO3)cc1,12.3
17,CN(C)c1ccc(NC(=O)CN2CCN(S(=O)(=O)c3cc(Cl)ccc3Cl)CC2)cc1,10
18,COc1cc2cc(CN(Cc3cccnc3)C(=O)Nc3ccccc3F)c(=O)[nH]c2cc1OC,10.7
19,C=C(C)COc1ccc(-c2[nH]ncc2Oc2cccc(OC)c2)c(O)c1,5.36
20,CC(C)c1nc(N2CCOCC2)c(C#N)c2c1CCCC2,12.6
21,N#CCSc1nnc(-c2cccnc2)n1-c1ccccc1,0.0664
22,COc1ccc(NS(=O)(=O)c2cccc(C(=O)NCCCN3CCOCC3)c2)cc1,18.1
23,CCOC(=O)c1cnc(-c2ccccc2)nc1N1CC(C)OC(C)C1 (stereo not shown),5.14

row,Structure (SMILES),"hERG current change (%, negative = inhibition) at 1uM [%]"
1,CCn1c(COc2cccc(C)c2)nnc1SCC(=O)Nc1cccc(C(=O)O)c1,4.22
2,COc1ccccc1CNC(=O)c1ccc(N2CCOCC2)c([N+](=O)[O-])c1,14.1
3,COc1ccc(C(=O)NCCCn2ccnc2)cc1[N+](=O)[O-],3.98
4,O=C(NCCc1ccc2c(c1)OCCO2)c1ccc(F)cc1,7.64
5,N#CC(C#N)=NNc1ccc(S(=O)(=O)N2CCCC2)cc1,-2.92
6,COc1ccc([C@H]2CC(=O)C=C(c3ccc(Cl)c(C(F)(F)F)c3)C2)cc1OC,13.9
7,CCCCn1c(N)c(C(=S)NC(=O)CC(C)(C)C)c(=O)n(C)c1=O,11.1
8,O=C(Nc1ncnc2sc3c(c12)CCCC3)c1ccncc1,14.9
9,COC(=O)c1cc(CSc2nc3ccccc3c(=O)n2C)oc1C,14.5
10,N#CCC(=O)Nc1ncc(Cc2ccccc2Cl)s1,10.9
11,CCOC(=O)c1cc(-c2ccco2)nc2c1c(C)nn2CCC#N,1.22
12,CCCCC(c1nnnn1CC1CCCO1)N1CCN(c2ccccc2)CC1.Cl (stereo not shown),13.8
13,CCOC(=O)C(C(=O)NCc1ccc(F)cc1)c1ncc(C(F)(F)F)cc1Cl (stereo not shown),8.18
14,O=C(NCc1cccs1)c1cc2c(s1)CS(=O)(=O)C2,11.8
15,Cc1cc(NC(=O)C2CC(=O)N(c3ccc(Cl)cc3)C2)no1 (stereo not shown),1.83
16,CCOC(=O)CN(C(=O)CNC(=O)c1cccs1)C(C(=O)NC1CCCCC1)c1cccnc1 (stereo not shown),16.8
17,COc1ccc(NC2c3ccccc3C(=O)N2Cc2ccccc2Cl)cc1OC (stereo not shown),0.0007
18,CC(C)(C)C(=O)N1CCN(c2ccc([N+](=O)[O-])cc2-n2cccc2)CC1,-11
19,Cc1ccc(S(=O)(=O)N2CCCOC2CNC(=O)C(=O)NC2CCCCC2)cc1 (stereo not shown),8.66
20,CCC1Sc2ccccc2N(CC(=O)NCc2ccccc2OC)C1=O (stereo not shown),-3.35
21,Cc1onc(-c2ccccc2)c1C(=O)N1CCCSC1=Nc1ccccc1,14.6
22,O=C(CCCOc1ccc(Cl)cc1)Nc1cccc(C(=O)O)c1,13.4
23,CSc1c(C#N)sc(=S)n1-c1ccc(C)cc1,2.35

row,Structure (SMILES),"hERG current change (%, negative = inhibition) at 1uM [%]"
1,Cc1cc(C)c2cc(C#N)c(NCCNC(=S)NCCCN3CCOCC3)nc2c1,-3.05
2,Cc1cc(C(=O)COC(=O)c2ccccc2NCCO)c(C)n1CC1CCCO1 (stereo not shown),2.47
3,CC(=O)N1CCN(c2cccc(C)c2C)CC1,1.34
4,COc1ccc(OCC(=O)N/N=C(\C)c2ccc(-n3ccnc3)cc2)cc1,0.479
5,Cc1ccnc(N2CCC(C(=O)NCc3ccc(F)cc3)CC2)n1,-2.26
6,Cc1cc(/C=C(\C#N)C(=O)Nc2ccc(Cl)cc2)c(C)n1-c1ccc(N2CCOCC2)c([N+](=O)[O-])c1,11.6
7,Cc1ccc(C(C)C)c(OCCCCCN2CCOCC2)c1,9.14
8,O=C(NCc1ccco1)c1ccccc1F,10.7
9,Cc1nnc(NC(=O)c2ccc3ccccc3c2)o1,12.9
10,CCOc1ccc2nc(NCCCNC(=O)c3cc(OC)c(OC)c(OC)c3)c(C#N)cc2c1,-8.59
11,O=C(N/N=C/c1ccncc1)C1CC1(c1ccccc1)c1ccccc1 (stereo not shown),5.86
12,CCCNC(=O)c1cccc(COCC(F)(F)F)c1,0.115
13,CCOc1ccccc1CN1CCNC(=O)C1CC(=O)NCCN1CCOC1=O (stereo not shown),14.7
14,O=C(N/N=C/c1c[nH]c2ccccc12)c1ccc2c(c1)OCCO2,1.84
15,O=C(O)C1CCCCC1C(=O)NCc1ccccn1 (stereo not shown),15
16,COc1ccc(NC(=O)COC(=O)CCCN2C(=O)c3ccccc3C2=O)cc1Cl,-7.27
17,O=C(CN1CCCCCCC1)N/N=C/c1ccccc1F,-2.15
18,Cc1[nH]c2ccc(C(=O)NCCCN3CCOCC3)cc2c1C,12
19,CCCCOc1ccc(S(=O)(=O)N2CCCCC2)cc1,6.97
20,Cc1cc(NC(=O)Cn2nnc(-c3ccccc3NC(=O)c3ccccc3F)n2)no1,14.1
21,CC(=O)c1cc2c(cc1NC(=O)CSc1ccc(S(=O)(=O)N(C)C)cn1)OCO2,10.3
22,CC(=O)CSc1nsc(SCC(C)=O)c1C#N,11.1
